Reference: the RNAGym collection of RNA variant scans (doi:10.7554/elife.90254)
Read counts are not given, so values of variants with three or more changes are uncertain.

B1: LINE1-mini (parent)
chain: GGCAGAGCUCAACACAGCGUGGCAAAGUGGCUGUGGCUAGACUGCC

Variants of: B1
Experiment: self-cleavage, relative activity (ratio to wild type); higher = more cleavage; in vitro, sequencing; the parent is a self-cleaving ribozyme

| Variant | self-cleavage |
| --- | --- |
| G5A C23A G40C | 0.03 |
| A4U G33U C37A | 0.07 |
| G5A C8A C18A C23U | 0.14 |
| G5A C13G G40U C42A | 0.01 |
| G5A C8U U28G | 0.15 |
| A4U U32A U43A | 0.02 |
| G5A A12G G17A A41C | 0.08 |
| G5A C13A G33A G36C | 0.14 |
| G5A C8G G21A C42A | 0.12 |
| G5A G7U A16C G40U | 0.29 |
| G5A C10A C15U G19C A25C | 0.01 |
| G5A A12U G21C A25G | 0.12 |
| G5A G7C G19C | 0.04 |
| G5A A14G C37U | 0.07 |
| A4U U28G G29U G30A U34A | 0.08 |
| A4U U9G C18U | 0.11 |
| G5A C13G C15A G21U G29U U43C | 0.08 |
| G5A C10G A14C C23U G30A | 0.02 |
| G5A C10U U32G | 0.05 |
| G5A C8A A11C C13A G22U U43A | 0.05 |
| G5A C8G G21U | 0.06 |
| G5A C8G G21A | 0.85 |
| G5A A25U C37A | 0.08 |
| G5A A25U C37U | 0.18 |

| Variant | self-cleavage |
| --- | --- |
| G5A A16U G19C U20C A24C G29C G36U | 0.03 |
| G5A C37G C46G | 0.03 |
| G5A A6C C31A C42U | 0.09 |
| G5A A25G C31U C46G | 0.03 |
| G5A C10G G21A A25U C31A U34C C42A | 0.01 |
| G5A A11C G33U C37U | 0.03 |
| G5A C23G A24U A39G C42U | 0.03 |
| G5A C10A G17U A26U A41C C45A | 0 |
| A4U U9C A11G G29U | 0.03 |
| G5A G7C G35U C45A | 0.21 |
| A4U G29U C37U G40A G44C | 0.2 |
| G5A A6C G22A U43A | 0 |
| G5A A11G A12G | 0 |
| G5A C18G C23U G33A | 0.1 |
| G5A A6U G7C C10A G36U | 0.12 |
| A4U U28G U32A G40U | 0.06 |
| G5A A25U G27A | 0.35 |
| G5A C13A A24U G35C G36U | 0.04 |
| G5A C13G G30A | 0.13 |
| G5A A6G A12U | 0.07 |
| G5A C15G C18U G29U U32C | 0.05 |
| G5A C13G G19U U28G G44A | 0.02 |
| A4U U9C A12G C23G A26G U43A | 0.01 |
| A4U G35A U38G G40U | 0.01 |

| Variant | self-cleavage |
| --- | --- |
| G5A A24U C31A A39U | 0.02 |
| G5A A41U U43C | 0.01 |
| A4U U28G G44A | 0.15 |
| G5A C10A A25C G30U G35C | 0.03 |
| A4U U32C G35U G36U U38G G44U | 0.03 |
| A4U U9A C18U U20A | 0.1 |
| G5A C10A U32A C42A U43G C46U | 0.03 |
| G5A C13A C37U | 0.26 |
| G5A A26C U28G G30A | 0.12 |
| G5A C10U G19U G33A | 0.06 |
| G5A C10G A14G U28A U32G | 0 |
| G5A A6U A14C G17C C45G | 0.13 |
| G5A C15A C23U G27A | 0.05 |
| G5A C8A G40A | 0.58 |
| G5A G7C C8A A12U A41U | 0.18 |
| G5A C10G A25G G29A | 0.01 |
| G5A A14U G35A G36A | 0.12 |
| G5A A11G A12U U20A | 0.01 |
| G5A A16C G40U | 0.31 |
| G5A C8A A14G G40C A41G | 0.14 |
| G5A A11U A14C G29U G35U | 0.03 |
| G5A A12U G22C C37U G40U C42G | 0.02 |
| G5A C8U U9C G21A G22A C23A G27U G35U C37A | 0.01 |
| G5A C13A G22A | 0.3 |

| Variant | self-cleavage |
| --- | --- |
| A4U G27A G30A | 0.21 |
| G5A G7C A11G A12G G27A C31A G36C C46U | 0 |
| G5A A16U G17A C23A | 0.06 |
| G5A C18U G40U | 0.14 |
| G5A A14C G17A C23A U32G G44C | 0.02 |
| G5A C18A G21A C37A A41U C46G | 0.01 |
| G5A A14C G22C A39C | 0.1 |
| G5A C10G C18G G21C | 0.03 |
| G5A C13A G21U | 0.08 |
| A4U U9G U34G | 0.07 |
| A4U G30A C46G | 0.05 |
| G5A A6G C8A C13G C42A | 0.08 |
| A4U G29A U32A | 0.33 |
| G5A A16C G17A C23A | 0.01 |
| G5A G7C G17A | 0.03 |
| G5A A14C U43A C46A | 0.08 |
| A4U G30U G35A | 0.09 |
| G5A C10G U28G C45G | 0.02 |
| G5A A6G U9G C13U U32G A41C | 0.06 |
| G5A A26G G36U | 0.04 |
| G5A C10A C15U G27U G35A G44A | 0.02 |
| G5A C8U U43A | 0.43 |
| G5A A25G C45A | 0.07 |
| G5A A11U G22A G44C | 0.01 |

| Variant | self-cleavage |
| --- | --- |
| G5A A26U G40C | 0.05 |
| G5A A6U C8U G21U G27U U38A G44A | 0.01 |
| G5A A6C A11U A16G G17U G19A G21U A25U G27U | 0.02 |
| G5A C13G G35A G44U | 0.04 |
| G5A C8A A12G C23A G36A | 0.38 |
| G5A C8A C10U G22C | 0 |
| G5A A41G G44A | 0.1 |
| G5A C10A A12C U20A C31G C45G | 0.01 |
| A4U U32A G33U | 0.07 |
| G5A A12G U20G G21C G22U A41U | 0.02 |
| G5A G7A A14C A16C | 0.14 |
| G5A C18G C37G A41G | 0.03 |
| G5A C10A C13G G21A G30A | 0.03 |
| G5A A6G C15U G29C | 0.05 |
| A4U G29U G33A | 0.34 |
| A4U U20C A41C | 0.06 |
| A4U G30A G36U | 1 |
| G5A A26C G29A G30A G33A G36C U38A | 0.02 |
| A4U G35A G36A U38A | 0.05 |
| G5A A11U G21A G22C | 0.01 |
| A4U U38C A41C | 0.04 |
| G5A C15A A16G U28A C31U | 0.01 |
| G5A C8A C23A U32A | 0.76 |
| G5A A16U G36C A39G | 0.02 |

| Variant | self-cleavage |
| --- | --- |
| A4U G33U G40C A41U | 0.02 |
| G5A A6U C23U G27C | 0.17 |
| G5A C10U G30C G40C | 0.01 |
| G5A G7A A26C | 0.41 |
| A4U U20A G40A | 0.03 |
| G5A G7A C31U G33U C37G | 0.03 |
| A4U U32A U38G | 0.02 |
| G5A C13A G17A | 0.09 |
| G5A C10A C18A A41U | 0.01 |
| G5A C23G C31A G33U | 0.08 |
| G5A C10U G40C A41C G44U C45U | 0.02 |
| A4U G35C G36U | 0.19 |
| G5A A12G C15A G36A | 0.02 |
| A4U G27U U34A G36A | 0.04 |
| G5A A14C G19U U34A C42G | 0.03 |
| G5A C13U U38A G40A C42A | 0.01 |
| G5A C10A G22U G30A G35A G44U | 0.01 |
| G5A G7A A16C A24C U32G | 0.24 |
| A4U U20A G29U C31A | 0.03 |
| G5A C8A C15A C42U | 0.1 |
| A4U G35C G36C G40A | 0.08 |
| G5A A14U C45U | 0.04 |
| G5A A11G C13G G27A U32G U34C G36U | 0.01 |
| G5A C31U C37G | 0.07 |

| Variant | self-cleavage |
| --- | --- |
| G5A A39U G44U | 0.14 |
| G5A C8G G19U A39U | 0.01 |
| G5A C8G A14G | 0.04 |
| G5A C8G A26U | 0.05 |
| G5A A6G C31U C37U | 0.19 |
| G5A G7C C31A A41C | 0.02 |
| A4U G30U G40U | 0.18 |
| A4U U20G G33A G40U C45U | 0.01 |
| G5A A16C U20A | 0.3 |
| G5A C15U G29A G30U U43G G44C | 0.05 |
| G5A C13A G19U U38C G44A | 0.02 |
| A4U U9C A11U G17A A24C A39U | 0.01 |
| G5A C18A G35A C46A | 0.14 |
| G5A A24C G33U | 0.03 |
| G5A C13U G17U U32A | 0.05 |
| G5A C10U G17C G44U | 0.05 |
| G5A A16C C18A | 0.14 |
| G5A C10A A14U G17A G19A | 0.03 |
| G5A A11U G17A A25G | 0.05 |
| G5A C18U C46G | 0.02 |
| G5A A16U G22A U32G U43C G44C | 0 |
| G5A C13U G29A A41C | 0.05 |
| G5A C8G C15G G27U G33U C42G | 0.07 |
